Results taken from PubChem BioAssay AID652106 (National Center for Advancing Translational Sciences (NCATS), 2013).
About 500 (0.14%) of roughly 370,000 compounds were called active. The inconclusive results got no clear call from the source; some entries with a clear call stand among them for comparison. The call rests on the fitted dose curve; in most records, active means well fitted activation curve with a large enough effect; inconclusive means small, poorly fitted or top-dose-only effect; inactive means no such curve, though single readings can be large or run the other way. A potency beside an inconclusive call is a rough fit, not a confirmed value.

assay: qHTS of alpha-syn Inhibitors; conditions: Yeast expressing alpha-synuclein, BacTiter-Glo, 24 h; Potency: growth rescue unless noted; growth rescue (activation): at 46.1 µM (top of the series) unless noted; further: nearly all actives have a fitted effect of over 65% in size; on growth rescue (activation): % of control where 0% means no effect
Method in brief: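 Readout is rescue of growth in alpha-synuclein-expressing yeast, so inhibitors of toxicity appear as activators. Growth after 24 hr at 30 deg C in galactose medium is quantified by luminescence.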
Potency means the concentration at half of the fitted maximal effect; tags describe the fitted curve by direction and shape.

Potency, inactive:
CC(=O)O[C@]1(C(C)=O)CC[C@H]2[C@@H]3C=C(Cl)C4=CC(=O)[C@@H]5C[C@@H]5[C@]4(C)[C@H]3CC[C@@]21C

Potency, inconclusive:
C#CCN1C=CC(=O)[C@@H](OC(=O)Nc2ccc(Br)cc2)[C@H]1c1ccccc1Br 25.1 µM [activator, single point]
C[C@H](CO)N1C[C@H](C)[C@@H](CN(C)C(=O)Nc2ccnc(N3CCOCC3)c2)OCc2cnnn2CCCC1=O 31.6 µM [activator, single point]
N/C(=N\OC(=O)COc1ccccc1)c1ccccn1 15.8 µM [activator, single point]
CNC(=O)NC(=O)C(NC1CCCc2ccccc21)c1ccccc1 (stereo unspecified) 31.6 µM [activator, single point]
CCCCn1c(N)c(N(CCOC)C(=O)CCN2C(=O)C3CC=CCC3C2=O)c(=O)[nH]c1=O (stereo unspecified) 6.31 µM [activator, single point]
CN1CCC(C)(C(=O)Nc2ccc3c(c2)OCCO3)C1 (stereo unspecified) 5.62 µM [activator, single point]
Cc1cc(C)n2ncc(/C(N)=N/OC(=O)Nc3ccc(Cl)cc3)c2n1 22.4 µM [activator, single point]
Cc1ccccc1OCC(=O)Nc1ccc(NC(=O)c2ccco2)cc1 4.47 µM [activator, single point]
O=C(CSc1nnc(Nc2ccccc2)s1)NC1CC1 3.16 µM [activator, single point]
Cc1ccc(C)c(NCCCCCCCC(=O)O)c1 3.98 µM [activator, partial curve]
CCOC(=O)[C@]12CCC=C1N(Cc1ccccc1)C(=O)[C@H](CC(=O)N1CCCC1)C2 35.5 µM [activator, single point]
Clc1ccc(CSc2ccc(-c3ccccn3)nn2)cc1 8.91 µM [activator, partial curve]
Cc1ccc(NNC(=O)c2c(F)cccc2Cl)cc1Cl 35.5 µM [activator, single point]
CCc1ccc(S(=O)(=O)/N=C2\C=C(NS(=O)(=O)c3ccccc3)C(=O)c3ccccc32)cc1 3.16 µM [activator, single point]
O=C1OCCN1C(=O)[C@H]1[C@H](c2ccc(Cl)cc2)C(c2ccccc2)=NN1c1ccccc1 7.94 µM [activator, partial curve]
CCc1ccc([C@@H]2CC=C(C(=O)O)[C@H](c3ccc(Cl)cc3)N2S(=O)(=O)c2ccc(C)cc2)cc1 20 µM [activator, single point]
CCCCNC(=O)C1(C)CCN1Cc1cc(C)ccc1C (stereo unspecified) 31.6 µM [activator, single point]
CCC(=O)N1c2ccc(S(=O)(=O)NCc3ccccc3)cc2CC1C (stereo unspecified) 22.4 µM [activator, single point]
COCCNC(=O)C1(C)CCCN(C(=O)c2ccc3c(c2)OCO3)C1 (stereo unspecified) 5.62 µM [activator, single point]
C/C(CC(=O)Nc1cc(C)cc(C)c1)=N\NC(=O)c1ccccn1 17.8 µM [activator, single point]
O=C(Nc1ccc(Br)cc1)c1ccc(F)c(S(=O)(=O)NC2CCCCCC2)c1 20 µM [activator, single point]
CC(C)N(C(=O)[C@H]1CC(CC(=O)NCCC2=CCCCC2)C(=O)N2CCc3c([nH]c4ccccc34)[C@]12C)C(C)C (stereo partly specified) 15.8 µM [activator, single point]
Cc1cc(C(=O)COc2ccc(Cl)cc2Br)c(C)n1C 35.5 µM [activator, single point]
CS(=O)(=O)N(CC(=O)N1CCN(Cc2ccccc2)CC1)Cc1ccccc1 6.31 µM [activator, single point]
O=c1[nH]c(/C=C/c2ccccn2)nc2ccccc12 22.4 µM [activator, single point]
Cc1cccc(NS(=O)(=O)c2ccc3c(c2)OCCO3)c1 15.8 µM [activator, single point]
O=C(Cn1ncc2c(=O)oc3ccccc3c21)N1CCCc2ccccc21 15.8 µM [activator, single point]
Cc1ccc(C)c(C(=O)CSc2nc(-c3ccccc3)nc3c2CCCC3)c1 35.5 µM [activator, single point]
O=c1c2c(-c3ccc(Cl)cc3)csc2ncn1/N=C/c1cccc([N+](=O)[O-])c1O 35.5 µM [activator, single point]
Fc1cccc(Cl)c1CN1CCN(c2nc3ccccc3s2)CC1 5.62 µM [activator, single point]
COc1cc(NS(=O)(=O)c2ccc(C(=O)O)cc2)c2nc(C)ccc2c1 14.1 µM [activator, single point]

Growth rescue (activation), inconclusive:
O=C(COc1cccc(Br)c1)Nc1ccc(N2CCOCC2)cc1N1CCOCC1 47.4% [activator] [at 1.84 µM]

Growth rescue (activation), inactive:
CC(C)C(NS(=O)(=O)c1cccc2nsnc12)C(=O)NCCC1=CCCCC1 (stereo unspecified) 1.64%
Cc1cccc(NC(=O)c2nc[nH]c2C(=O)N[C@@H](CC(C)C)C(=O)OC(C)(C)C)c1 -2.45%
O=C1c2ccccc2C(=O)N1c1cccc(O)c1 -13%
CCN(CC)C(=O)c1cn(CC)c(=O)c2cc(OC)c(OC)cc12 1.03%
O=C(O)c1[nH]c2ccccc2c1C(c1c(F)cccc1Cl)c1c(C(=O)O)[nH]c2ccccc12 0.153%
O=C(Nc1ccccc1)N1CCCC(c2nc(-c3ccc(F)cc3)no2)C1 (stereo unspecified) 15.8%
Cc1cc(F)ccc1-c1cc(C(=O)NCC2CCCCC2)[nH]n1 -5.79%
N#CC(=C1C=CC(=NO)C(Cl)=C1)c1ccccc1 -10.3%
